# Laboratory results: article PMC4336329 (PLoS ONE, 2015)
# Out of some 310,000 compounds screened, about 2,200 (0.71%) showed an effect of 50% or more. Effects have a minus sign here. The list shows a part of the results.
# Molecular target: human ether-à-go-go-related gene (hERG) potassium channel (human, UniProt Q12809)
# Experiment: primary screen, population patch clamp on CHO cells stably expressing hERG
# human ether-à-go-go-related gene (hERG) potassium channel, sequence (Q12809 whole entry, looked up): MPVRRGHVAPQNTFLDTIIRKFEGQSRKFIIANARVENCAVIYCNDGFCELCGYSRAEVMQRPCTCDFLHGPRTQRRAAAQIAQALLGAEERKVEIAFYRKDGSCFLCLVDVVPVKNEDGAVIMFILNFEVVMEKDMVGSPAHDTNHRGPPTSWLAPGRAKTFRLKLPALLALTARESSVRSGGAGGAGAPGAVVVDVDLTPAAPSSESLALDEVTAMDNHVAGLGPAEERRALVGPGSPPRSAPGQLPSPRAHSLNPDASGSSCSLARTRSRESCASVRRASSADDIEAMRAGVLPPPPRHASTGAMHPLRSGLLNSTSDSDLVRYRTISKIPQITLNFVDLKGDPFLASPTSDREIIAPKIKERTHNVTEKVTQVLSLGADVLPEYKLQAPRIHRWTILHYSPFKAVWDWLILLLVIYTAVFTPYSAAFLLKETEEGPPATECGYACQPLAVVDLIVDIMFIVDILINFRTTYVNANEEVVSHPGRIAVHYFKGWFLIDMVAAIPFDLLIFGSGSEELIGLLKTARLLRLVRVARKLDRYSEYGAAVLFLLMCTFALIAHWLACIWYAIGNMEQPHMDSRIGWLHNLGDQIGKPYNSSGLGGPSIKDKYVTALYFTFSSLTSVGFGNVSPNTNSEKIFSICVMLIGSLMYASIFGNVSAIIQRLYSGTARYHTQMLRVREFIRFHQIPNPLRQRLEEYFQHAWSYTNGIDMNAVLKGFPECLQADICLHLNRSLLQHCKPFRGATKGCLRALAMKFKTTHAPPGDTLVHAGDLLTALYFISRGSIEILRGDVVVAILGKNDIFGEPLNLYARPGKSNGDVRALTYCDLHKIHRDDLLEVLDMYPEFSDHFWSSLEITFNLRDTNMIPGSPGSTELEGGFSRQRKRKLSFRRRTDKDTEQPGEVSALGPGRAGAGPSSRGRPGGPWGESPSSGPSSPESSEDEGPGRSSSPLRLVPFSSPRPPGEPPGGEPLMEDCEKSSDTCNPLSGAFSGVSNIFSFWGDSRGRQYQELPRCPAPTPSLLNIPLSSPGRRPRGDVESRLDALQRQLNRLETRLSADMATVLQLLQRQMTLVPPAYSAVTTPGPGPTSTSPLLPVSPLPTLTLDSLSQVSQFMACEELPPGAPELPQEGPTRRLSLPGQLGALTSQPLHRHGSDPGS
row,SMILES,"hERG current change (%, negative = inhibition) at 1uM"
1,CC(C)n1c(=N)c(C(=O)NCCc2ccccc2)cc2c(=O)n3ccccc3nc21,-78.6%
2,O=C(CSc1nnc(Cn2c(=O)sc3ccccc32)n1-c1ccccc1)Nc1nccs1,8.79%
3,Oc1ccc(Br)cc1/C=N/n1c(-c2ccccc2)n[nH]c1=S,15%
4,COc1ccccc1N1CCN(C(=O)COc2ccc(Cl)cc2)CC1,-39.9%
5,O=c1ccc2c(-c3ccccc3S(=O)(=O)O)c3ccc(O)c(O)c3oc-2c1O,7.19%
6,CCOC(=O)C(C(=O)Nc1cccc(C)n1)C1CCCCC1 (stereo not drawn),3.95%
7,CCC(=O)Nc1nnc(CSCc2ccc(F)cc2)s1,3.36%
8,COc1ccc(NC(=O)c2ccc(NC(=O)COC(=O)CC(NC(=O)c3ccccc3Cl)c3ccccc3)cc2)cc1 (stereo not drawn),3.61%
9,O=c1c2ccccc2nc(/C=C/c2c[nH]c3ccccc23)n1-c1ccc([N+](=O)[O-])cc1,13.4%
10,O=C(CCc1nnc(COc2ccccc2)o1)NCCc1cccs1,9.03%
11,CS(=O)(=O)N(CC(=O)NCCSC1CCCCC1)c1ccccc1,17%
12,O=C(O)CCC(=O)N1CN2CN(C(=O)CCC(=O)O)CC([N+](=O)[O-])(C2)C1,11.7%
13,COc1ccc(NS(=O)(=O)c2cc(NC(=O)Cn3cnc4c3c(=O)n(C)c(=O)n4C)ccc2C)cc1,8.77%
14,COc1ccc(CN2CCNCC2)c(OC)c1OC,13.9%
15,COc1cccc(C2/C(=C(\O)c3ccc4c(c3)OCCO4)C(=O)C(=O)N2CCCn2ccnc2)c1 (stereo not drawn),19.5%
16,CCCSc1nc(O)c(CC)c(=O)n1C(C)CC (stereo not drawn),6.13%
17,O=[N+]([O-])c1cc(-c2cnc3ccccc3n2)ccc1Cl,8.3%
18,Nc1c(-c2ccc(Cl)cc2)cnn1-c1cccc([N+](=O)[O-])c1,8.88%
19,O=C(NCc1ccco1)C(=O)NCC1OCCCN1S(=O)(=O)c1ccccc1 (stereo not drawn),13.3%
20,CC1=C(C(=O)OCc2ccc3c(c2)OCO3)C(c2ccc(O)c([N+](=O)[O-])c2)NC(=O)N1 (stereo not drawn),7.48%
21,O=C(Nc1ccccc1)C1CCN(C(=O)c2ccco2)CC1,16.2%
22,CCOc1cc(C2NC(=O)c3ccccc3O2)ccc1OC(C)C (stereo not drawn),9.21%

row,SMILES,"hERG current change (%, negative = inhibition) at 1uM"
1,Clc1ccc(CN2CCN(c3ncccn3)CC2)cc1,8.96%
2,CC1=NN(c2nc(-c3ccc(C)cc3)cs2)C(=O)C1N=Nc1cccc(O)c1 (stereo not drawn),5.44%
3,COC(=O)c1ccc(OCCn2cnc3ccccc3c2=O)cc1,-7.14%
4,FC(F)(F)c1cnc(N2CCN(C(=S)NCc3ccccc3)CC2)c(Cl)c1,4.6%
5,C/C(=N/Nc1ccnc2cc(Cl)ccc12)c1ccc(O)cc1,7.08%
6,CCCc1nc2c(ccc3ccccc32)cc1CC,4.82%
7,Cc1ccc(NC(=O)CSc2nc(NS(=O)(=O)c3ccccc3)cc(=O)[nH]2)cc1,6.77%
8,FC(F)(F)c1cc(Nc2ccccc2)nc(-c2ccccn2)n1,10.8%
9,NC(=O)c1oc2ccccc2c1NC(=O)CS(=O)(=O)c1ccccc1,11.6%
10,CC(C)CNC(=O)C1Nc2ccccc2C2C=CCC12 (stereo not drawn),1.88%
11,Cc1c(N2C(=O)CSC2=S)c(=O)n(-c2ccccc2)n1C,9.28%
12,CCn1c(=O)cc(SCC(=O)N2CCC(C)CC2)c2ccccc21,15.4%
13,O=C(NC1CCCCC1)C(=S)NCc1ccccc1,7.31%
14,CC(Oc1ccccc1)C(=O)Nc1ccc(S(=O)(=O)NCC2CCCO2)cc1 (stereo not drawn),0.893%
15,CN(C)C(=O)c1ccc(NC(=O)c2cc(-n3cnnc3)ccc2Cl)cc1,4.04%
16,CC1CCCN(S(=O)(=O)c2ccc(NC(=O)Cn3nnc(-c4ccccc4F)n3)cc2)C1 (stereo not drawn),7.34%
17,Clc1ccccc1Sc1ccc(-c2ccccn2)s1,9.33%
18,CCC(C)NC(=O)CCC(=O)OC1O[C@H]2OC3(C)CC[C@H]4[C@H](C)CCC(C1C)C24OO3 (stereo partly drawn),5.59%
19,Cc1ccc(C(=O)N(CC(=O)NC2CCCC2)c2ccc(F)cc2)s1,-0.522%
20,O=C(CCS(=O)(=O)c1ccccc1)Nc1nc(-c2ccccn2)cs1,7.75%
21,CCSc1nnc2c3cc(CC)ccc3n(C)c2n1,13.9%
22,COc1ccc2cnn(-c3ccc(OC(F)(F)F)cc3)c(=O)c2c1OC,14.8%

row,SMILES,"hERG current change (%, negative = inhibition) at 1uM"
1,COc1cc(C(=O)N/N=C/c2cn(Cc3cccc(F)c3)c3ccccc23)ccc1O,14.5%
2,CCOCCCN1CC(=O)N2[C@@H](Cc3c([nH]c4ccccc34)C2(C)C)C1=O,8.37%
3,CCN(Cc1ccccc1)C(=O)c1ccc(N(C)S(=O)(=O)c2ccc(C)cc2)cc1,-10.2%
4,O=C(N/N=C\c1ccc(-c2cccc(Cl)c2)o1)C(=O)NC1CCCC1,9.25%
5,O=C(Nc1ccc(Cl)cn1)Nc1ccc(Cl)cn1,1.64%
6,CC(C)[C@H](NC(=O)OCc1ccccc1)C(=O)OCC(=O)N1CCN(c2ccccc2)CC1,-16.8%
7,Cc1ccc(/C=C/C(=O)OCC(=O)NCCN2C(=O)CSC2=O)cc1,-1.1%
8,Cc1ccccc1-c1noc(N)c1C#N,-1.11%
9,CCN(CCNc1ccc([N+](=O)[O-])c2cccnc12)S(=O)(=O)c1ccccc1,9.2%
10,COc1ccc(F)cc1C(=O)C1CCCN(C(=O)Cc2c(C)noc2C)C1 (stereo not drawn),1.73%
11,O=C(O)COc1ccccc1/C=N/NC(=O)c1cc(-c2ccc(F)cc2)nc2ccccc12,7.14%
12,CC(C)[C@H](NC(=O)OCc1ccccc1)C(=O)OCC(=O)Nc1ccc(N2CCOCC2)cc1,3.53%
13,Cc1ccc(-n2[nH]c(C)c(C=Nc3ccc4[nH]c(=O)[nH]c4c3)c2=O)cc1,12.2%
14,CCCCn1c(N)c(N(CC(C)C)C(=O)C2=NN(c3cc(C)ccc3C)C(=O)CC2)c(=O)[nH]c1=O,9.18%
15,CCCCn1c(N)c(N(CC(C)C)C(=O)c2ccc(S(=O)(=O)N(CC)c3ccccc3)cc2)c(=O)[nH]c1=O,5.65%
16,Cc1cc(OCC(=O)Nc2cccnc2)c2c(C)c(C)c(=O)oc2c1,13.2%
17,COc1ccccc1N(CC(=O)NCCSCc1ccccc1)S(=O)(=O)c1ccc(C)cc1,-4.32%
18,O=C(Cc1cccc2ccccc12)Nc1cc(C(=O)O)cc(C(=O)O)c1,17.4%
19,CN1C(=O)CS/C1=N\NC(=O)COc1cccc2cccnc12,10.9%
20,COc1ccc(OC)c(CCNC(=O)c2ccc(NC3=NC4CS(=O)(=O)CC4S3)cc2)c1 (stereo not drawn),10.4%
21,COC(=O)c1c(NC(=O)Cc2cccs2)sc(C(=O)N2CCCCC2)c1C,15.9%
22,CC(C)CNC(=O)c1cnn2c(C(F)(F)F)cc(C(F)(F)F)nc12,6.51%

row,SMILES,"hERG current change (%, negative = inhibition) at 1uM"
1,O=C(CCCNS(=O)(=O)c1cccs1)N1CCN(c2cccc(Cl)c2)CC1,5.43%
2,N#Cc1c(NC(=O)c2ccc(Cn3cc(Br)cn3)o2)sc2c1CCCCC2,3.21%
3,Cc1cc2ccccc2n2c(SCC(=O)N3CCOCC3)nnc12,11.2%
4,CCc1cc[n+](-c2nc([O-])sc2C=O)cc1,-2.68%
5,Cc1ccc(-n2nc(-c3ccc(N)cc3)cc2N)cc1,12.7%
6,COc1ccc2c(CC(=O)O)cc(=O)oc2c1,8.88%
7,Cc1noc(/C=C/N(C)C)c1S(=O)(=O)N1CCCC(C(=O)Nc2ccc(F)cc2F)C1 (stereo not drawn),7.51%
8,COc1cccc(-c2nnc(NC(=O)CCS(=O)(=O)c3ccc(C)cc3)o2)c1,17%
9,CC(=O)Cc1nsc(NC(=O)c2ccc(-c3cccc(C(F)(F)F)c3)o2)n1,-10.9%
10,S=C(NCc1ccccc1)N/N=C/c1cccs1,19.5%
11,COc1ccc(CNC(=O)c2ccccc2[N+](=O)[O-])cc1,6.62%
12,COc1ccc(OC)c(S(=O)(=O)N2CCc3ccccc3C2)c1,7.52%
13,C=CCNc1cnn(-c2ccccc2)c(=O)c1Cl,17%
14,CCOC(=O)c1sc2nc(C)[nH]c(=O)c2c1C,9.96%
15,COc1ccccc1NC(=S)N1CCCc2ccccc21,11.7%
16,O=C(COc1ccccc1)NC1C(=O)N2C(C(=O)O)=C(Cl)CSC12 (stereo not drawn),9.71%
17,CC(C)(C)P(=O)(NCc1ccccc1)c1ccccc1 (stereo not drawn),16%
18,CCc1sc(C(=O)NCCCN2CCCC2=O)cc1Br,10.5%
19,Cc1ccc2oc(-c3cccc(NC(=O)c4ccc(Br)o4)c3)nc2c1,6.25%
20,O=C(/C=C/c1ccccc1)Nc1sc2c(c1C(=O)O)CCC2,8.75%
21,CCCN1CCC[C@H](c2cccc(O)c2)C1.Cl,2.7%
